Drawing on paper PMC12136788, this text covers binding signal for 22 molecules.

T1: UNK ZnF1-3 (human, UniProt Q9C0B0 31-174)
T1 sequence: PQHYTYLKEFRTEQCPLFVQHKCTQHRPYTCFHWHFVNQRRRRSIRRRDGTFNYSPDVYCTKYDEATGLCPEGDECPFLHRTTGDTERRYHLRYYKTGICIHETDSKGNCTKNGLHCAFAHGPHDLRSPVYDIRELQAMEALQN

B1: 82481400_82484211_767_CDS_ENSMUSG00000028403_ENSMUST00000030110|mouse|control|control (ssRNA)
RNA: GGGAGUUCUACAGUCCGACGAUCCAUCAGUGCGUAGCAAGUAAGCAGCUCAGUGUAGAAACACAACUGCAGAAAGAGCCAAUGGUUGUCUUCACCCACACAAUUGUUUAUCCAAGGACAGUGAUGGUCCAUCCUCCUGACGCACAACAGAGGAUUGAGCAUCA
B2: chr2:217001844:217001845:+_ENSG00000079246_ENST00000392132|hu_hu|hu_hu_hu_mus_False|1_58 (ssRNA)
RNA: GGGAGUUCUACAGUCCGACGAUCACCAACUUGAGGAUUAGAUCUUUUGUCAUAAGCAUAUCGGACGAUGGCGACCAUGUCUAAGUCAUCCAAAGCAUGAACGAGAGAGGAAAGGGCAACAGCUGCCGCCUCAUCAUCUCUUGCCAACAGAGGAUUGAGCAUCA
B3: chr12:48362563:48362564:+_ENSG00000134291_ENST00000256686|hu_hu|hu_hu_hu_mus_False|1_58 (ssRNA)
RNA: GGGAGUUCUACAGUCCGACGAUCUCCGUCAAGCCCUUCGAUAGACCCUUGCGGGGGAAACUGUAAUCACUUUGUAUUUCUAAAAAAAAGAAACGCCAAAAACUUUCCAAAAAGCGGGGGUGGGGUGAGGCGGGAGGUUGGGAACAACAGAGGAUUGAGCAUCA
B4: chr1:43162399:43162400:+_ENSG00000065978_ENST00000321358|hu_hu|FALSE|FALSE (ssRNA)
RNA: GGGAGUUCUACAGUCCGACGAUCAUUCUGGUAAUUUUGCUGGUAAUUGCGUGGAGGACCCCUACGACGUGGAUAGCGUCUAUAAUGGUUACGGUCUGCUGCAUAUUUACUGCCUUGAACUGGAACACCACCAGGACCUGUAACCAACAGAGGAUUGAGCAUCA
B5: chr7:149068622:149068623:-_ENSMUSG00000025139_ENSMUST00000001950|mus_hu|mus_mus_mus_hu_False|8_18 (ssRNA)
RNA: GGGAGUUCUACAGUCCGACGAUCGUGAGGCCUCUGAGUGUGGCUUGUGGUCUGUCCUGGGUUAGAGUUGUUAAUAUCACGGAACAUACCAUCUAGAACGUUCCAGUCCCGCCUGACCAUCCACCCUGCAAGAGGGCAGAAAUCCAACAGAGGAUUGAGCAUCA
B6: chr2:48782664:48782665:-_ENSMUSG00000026761_ENSMUST00000141441|mus_hu|FALSE|FALSE (ssRNA)
RNA: GGGAGUUCUACAGUCCGACGAUCCACUCUUUUUUCUAAGAGUUCCAAAAUAUCCAAUCUACAUGUAAGACCAAUAACUGCUAUUGGGGUCUGUGCAGACUGAGAAAUGUCAAAAAGAUUAUAGAGAAGUGUUUGGUUUUUAUGCAACAGAGGAUUGAGCAUCA
B7: chr18:43664530:43664531:-_ENSG00000152234_ENST00000398752|hu_hu|FALSE|FALSE (ssRNA)
RNA: GGGAGUUCUACAGUCCGACGAUCAGUGCCCAACAAGGCUUGGUGCUGGCUGACGACAUGAGACAAGAAAGCAUUCUCAAACUUUGUAAUCUUGCUGGGCUCCAGUUUAUCAAGAUAUCCCCUUACACCCGCAUAGAUAACAGCCAACAGAGGAUUGAGCAUCA
B8: chr11:134117265:134117266:+_ENSG00000151502_ENST00000281187|hu_mus|FALSE|FALSE (ssRNA)
RNA: GGGAGUUCUACAGUCCGACGAUCGUUGGAAAAUAAUUUUGUGUUGUCGGCUGGGAGGCAGAGAAAUUGACAAAUGCUUUUUAAUGAGAUAUUAAAAGGAGGCACGGCAGAGUCUAGUCUCAUAUCCUGAAAAGGGCAAGAGCCCAACAGAGGAUUGAGCAUCA
B9: chr7:135612270:135612271:-_ENSG00000105887_ENST00000393085|hu_mus|hu_hu_hu_mus_False|1_28 (ssRNA)
RNA: GGGAGUUCUACAGUCCGACGAUCGUUUUUUUCUGAGAUGUUAAAUAGUACUUCAGUGGAAAACAAAACUUAACCUUUUAUUAAUGCGUGUUGUACCAAAAGCAGACCAUGGUUUUACAUUUAUUCAAAAAUAUUAAGAACAUUCAACAGAGGAUUGAGCAUCA
B10: chr7:133502204:133502205:+_ENSG00000131558_ENST00000253861|hu_hu|FALSE|FALSE (ssRNA)
RNA: GGGAGUUCUACAGUCCGACGAUCGGUGUCUGCGUUGGCCAGAAUCUUCAAAGGGUCAGAUGUUUUAGUGACUCCUUCAAUCUCCUUGUUGAUCUCAGCCAAGACUUGAUUGAGAAAGAUGUUUUUGAUGUACACGGUGAGAAACAACAGAGGAUUGAGCAUCA
B11: chr7:151048522:151048523:+_ENSG00000013374_ENST00000566856|hu_mus|hu_hu_hu_mus_True|48_58 (ssRNA)
RNA: GGGAGUUCUACAGUCCGACGAUCCUGUUUCUUAUUUAUUACGAUCUUGAUGUAAUUUUCUUGAAAUCCGAAAGUUUCAGCUAUUUUGGACCUCAGUUCUCUACCAGUGACAUGCAAGCGGGUCUCCAACAAGCUUUUCUUAUCCAACAGAGGAUUGAGCAUCA
B12: 232325539_232326332_832_CDS_ENSG00000115053_ENST00000322723|human|control|control (ssRNA)
RNA: GGGAGUUCUACAGUCCGACGAUCUUUGGCUGGUGUAGUCUCCAUAGCUUCUUCUUCAGAGUCAUCUUCCUCAUCGUCAUCGUCAUCCUCAUCAUCUUCGUCAUCCUCAUCGUCCUCAUCCUCUGAGGCAGGGGCAGCAGCUGCCAACAGAGGAUUGAGCAUCA
B13: chr4:115894766:115894767:+_ENSMUSG00000028698_ENSMUST00000030464|mus_hu|mus_mus_mus_hu_True|68_78 (ssRNA)
RNA: GGGAGUUCUACAGUCCGACGAUCUUCCACACGGAAAUGUACUUCGGGUUUUCCAACGCCAGUACAAGUCCAGCCAAAACUACCCGAACAGGGUCCUCCCCCUCUCUCCUACAGAACACAACAAAAUGCCCCCGAACUUUCAAGCAACAGAGGAUUGAGCAUCA
B14: 62105683_62122626_701_CDS_ENSMUSG00000042298_ENSMUST00000050646|mouse|control|control (ssRNA)
RNA: GGGAGUUCUACAGUCCGACGAUCUGAUAGCUGCUUGGAGAAUAGCAGAUAGCGUGCACAAGAGUCUAAGCACAUACCAAGGAGGAGGUAAGUAUUGGCUGUUUCUUCUGACAUAAUAUCUUCUGCUAAUUCCUUUUCUCUUUCCAACAGAGGAUUGAGCAUCA
B15: chrX:98862621:98862622:+_ENSMUSG00000034160_ENSMUST00000044475|mus_hu|mus_mus_mus_hu_False|38_48 (ssRNA)
RNA: GGGAGUUCUACAGUCCGACGAUCCUGCAUCUCCUUUAGAGUGUUUCCCAUAUUAGAGUAGGCAUCAGCAAAGGUAGGACUGAUUCGUAUGGCUUCUUUAUAGUGCAUCAGAGCUUCCUGCAGUUUUCCCUGCUGCUGCAGUACCAACAGAGGAUUGAGCAUCA
B16: chr18:59894552:59894553:+_ENSG00000134444_ENST00000256858|hu_hu|FALSE|FALSE (ssRNA)
RNA: GGGAGUUCUACAGUCCGACGAUCUUGAUGAUUUCCAAAAUCCCGGUAGAGUUGCAAUAAGUCUGGAGGUUUUGGAAUGUUUAAUCCUACAUCAUCCCAUAAUUCAAAAUCCUGAUCAUCGUUUUCAUCUGAAAAGGUUAUUGACAACAGAGGAUUGAGCAUCA
B17: chr1:215793774:215793775:+_ENSG00000136636_ENST00000259154|hu_hu|FALSE|FALSE (ssRNA)
RNA: GGGAGUUCUACAGUCCGACGAUCAUAGGGAACUUUCUUUCUUCCAAGGAAUCCUCCCCCUUCAAAUCCUCCUUUCUUCCUAAACUCUAUUUUAUUUUCAUUUUCAUCUUCUGAUGACCUUUUCUUGGAUUCUGAAAAACCUUCCAACAGAGGAUUGAGCAUCA
B18: chr19:8913615:8913616:-_ENSMUSG00000071658_ENSMUST00000096259|mus_hu|mus_mus_mus_hu_False|8_98 (ssRNA)
RNA: GGGAGUUCUACAGUCCGACGAUCAGGGUACCAAAACACCCUGCCUCAAAUGGGUGCCCCACCCAGUAGGGAGUUGCAGCUGAAAGUAUCUGAUGCAGAAGCAGUGACUAUACGAAAGGAGGCCCCUGAUGCUCAGAAGGCCAGCAACAGAGGAUUGAGCAUCA
B19: 87763691_87772365_1231_CDS_ENSG00000008277_ENST00000398209|human|control|control (ssRNA)
RNA: GGGAGUUCUACAGUCCGACGAUCGGUGAACUUUUUAGGAAGAUAAUAGCCAGUGUCUCCCAUUAUGCACCCGGACCACGUGUCCUCGCAUUUACAUUCACCACUUGCUAACUUUCUUUUGUCUGAGAUAAUACCAAUAUUAUGCAACAGAGGAUUGAGCAUCA
B20: chr17:56552419:56552420:-_ENSMUSG00000013236_ENSMUST00000086828|mus_mus|mus_mus_mus_hu_False|78_108 (ssRNA)
RNA: GGGAGUUCUACAGUCCGACGAUCAAAGUUUUUUUCUUUUAAAAAAAAUGAAAUGUCAGAAAAAGAAGUUACACUGAGAGUUUUAAAAGAAAGCUGGAUUCUGGUCCCAGCCCAGUGUCCCCAGGCUGCAGAGCGGGGAGGAGCCAACAGAGGAUUGAGCAUCA
B21: chr16:94690093:94690094:+_ENSMUSG00000040785_ENSMUST00000117648|mus_hu|mus_mus_mus_hu_True|28_28 (ssRNA)
RNA: GGGAGUUCUACAGUCCGACGAUCGGGCUGGGAUGACGGACACACAGCCUCGAUUCCAGGGGGAAAAAGUCUUAGUCGAUACUAAUUAAAAAGUGUUAAUGAUUUUUAUUACCAAAAUUACAUCUAUAAAAGAUGAAAAGCAAACAACAGAGGAUUGAGCAUCA
B22: chr7:108143013:108143014:-_ENSG00000135241_ENST00000257694|hu_mus|motif|central (ssRNA)
RNA: GGGAGUUCUACAGUCCGACGAUCGAGGAUUCGGAUUCCUCUGCCUUUCACUGGAUCUACAUAACCAAUUAAAGCCAAAAUUUCUCGGACUGCAGCCUGAAGAGUUUCAUCCUUAACUUGUCUCAGCCGUAAUAAAUAUGGAAUCAACAGAGGAUUGAGCAUCA

The other results are listed elsewhere or left out.

The target of this test is T1, UNK ZnF1-3. Put plainly: nsRBNS (natural sequence RNA bind-n-seq); RBNS binding buffer (assumed for nsRBNS): 25 mM Tris pH 7.5, 150 mM KCl, 3 mM MgCl2, 0.01% Triton X-100, 500 ug/ml BSA, 20 U/ml SUPERase-In, 4 C; UNK is unkempt and MSI1 is Musashi-1; names of the RNAs are library labels; protein concentration not given here; high values mean tight binding.
As for B1, the binding signal is 1.29 enrichment R.

B2 returned a binding signal of 1.4 enrichment R.

For the molecule B3, the binding signal was determined as 1.89 enrichment R.

As for B4, the binding signal was 0.828 enrichment R.

As for B5, the binding signal was 0.672 enrichment R.

For the molecule B6, the binding signal was found to be 0.825 enrichment R.

In turn, B7 displayed a binding signal of 1.28 enrichment R.

On to B8, for which the binding signal was 2.19 enrichment R.

As to B9, the binding signal came to 1.02 enrichment R.

Consider B10, for which the binding signal stood at 0.885 enrichment R.

B11 showed a binding signal of 0.674 enrichment R.

B12 yielded a binding signal of 0.663 enrichment R.

B13 displayed a binding signal of 1.03 enrichment R.

In turn, B14 returned a binding signal of 1.07 enrichment R.

B15 registered a binding signal of 0.967 enrichment R.

Regarding B16, the binding signal was 0.399 enrichment R.

In the case of B17, the binding signal turned out to be 0.475 enrichment R.

For the molecule B18, the binding signal turned out to be 1.13 enrichment R.

As for B19, the binding signal was 0.368 enrichment R.

As to B20, the binding signal stood at 2.07 enrichment R.

In turn, B21 gave a binding signal of 1.28 enrichment R.

Regarding B22, the binding signal was found to be 0.962 enrichment R.
